Experimental data taken from PubChem BioAssay AID1347071 (National Center for Advancing Translational Sciences (NCATS), 2019).
Several values for one entry are separate records, joined by “and”; a condition that tells them apart may be missing. Identical values can stand only once. Among all 410,000 compounds or so, about 260 (0.063%) were called active. Inconclusive means that the source gave no clear call. Such entries were picked first, then a sample of the others. Calls come from the whole dose curve; as a rule, active = well fitted activation curve with a large enough effect; inconclusive = small, poorly fitted or top-dose-only effect; inactive = no such curve, though single readings can be large or run the other way. A potency beside an inconclusive call is a rough fit, not a confirmed value.

Assay: qHTS for compounds that reverse cellular toxicity of Amyloid beta (A-beta) peptide in yeast: Primary Screen; note: nearly all actives have a fitted effect of over 55% in size
Conditions: yeast expressing A-beta42, growth rescue, OD600, 48 h; growth rescue: at 46.1 µM (top of the series), 0% DMSO, 100% iron-clioquinol control
Procedure, shortened: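 Growth rescue measured by 600 nm absorbance after 48 h yeast culture at 30 C with compound. Values normalized between DMSO and an equimolar ferric chloride plus clioquinol control.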
Potency is the fitted concentration of half-maximal effect; tags give direction and shape of the fitted curve.

Q: Which Potency does the source give for CC(=O)Nc1nc2n(n1)C(c1ccc(Cl)cc1)C=C(C)N2 (centres undefined) here?
A: inactive

Q: With COc1cccc(C(=O)Nc2nc(-c3ccccc3)c(-c3ccccc3)o2)c1 as the molecule, how does the Potency read?
A: active: 15.8 µM

Q: For Cc1ccc(NC(=O)CSc2nnc3ccccn23)cc1, which Potency is on record?
A: inactive

Q: Which Potency does the source give for O=C(Nc1ccc(F)c(Cl)c1)C1Cc2c(-c3ccc4c(c3)OCO4)ccnc2O1 (centres undefined) here?
A: inactive

Q: For CCOc1cc2c(c3c1C(c1ccccc1)N(S(=O)(=O)c1ccc(C)cc1)C3)C(=O)C=CC2=O (centres undefined), which Potency is on record?
A: inactive

Q: With Cc1ccc(-c2cc(N)n(Cc3ccc(Cl)cc3)n2)cc1 as the molecule, how does the Potency read?
A: inconclusive: 4.47 µM [activator, partial curve]

Q: Which Potency does the source give for Cc1ccc(C2CCN(C(=S)NC(C)C)C2)cc1 (centres undefined) here?
A: inconclusive: 14.1 µM [activator, partial curve]

Q: For CC(C)Sc1ncc(Cl)c(C(=O)Nc2nc3ccc(S(C)(=O)=O)cc3s2)n1, which Potency is on record?
A: inactive

Q: Which Potency does the source give for Cc1ccc(NCc2cccn2-c2nnc(N3CCC(C(=O)NCc4ccccc4C)CC3)s2)cc1 here?
A: inconclusive: 31.6 µM [activator, single point]

Q: With Cc1cccc(CSc2nnc(-c3ccco3)o2)c1 as the molecule, how does the Potency read?
A: inactive

Q: With N#Cc1ccc(Oc2cccc3cccnc23)c([N+](=O)[O-])c1 as the molecule, how does the Potency read?
A: inconclusive: 2.24 µM [activator, full curve]

Q: For Cc1ccc(Nc2ccc(C(=O)O)cc2[N+](=O)[O-])cc1, which Potency is on record?
A: inactive

Q: Which Potency does the source give for O=C(C1CCCCC1)N1CCC(O)(c2ccc(Cl)cc2)CC1 here?
A: inconclusive: 15.8 µM [activator, single point]

Q: For CCOC(=O)c1cc(-c2cccc([N+](=O)[O-])c2)n[nH]1, which Potency is on record?
A: inconclusive: 8.91 µM [activator, partial curve]

Q: With CCOC(=O)c1c(NC(=S)NC)sc2c1CC(C)(C)SC2 as the molecule, how does the Potency read?
A: inconclusive: 12.6 µM [activator, partial curve, poor fit]

Q: With CNNC(=S)NCCC1=CCCCC1 as the molecule, how does the Potency read?
A: inconclusive: 7.94 µM [activator, partial curve]

Q: For Cc1ccc(C)c(N2CCN(C(=O)CN3CCSc4ccccc43)CC2)c1, which Potency is on record?
A: inconclusive: 15.8 µM [activator, single point]

Q: For CN(CC(O)Cn1c2ccccc2c2ccccc21)S(C)(=O)=O (centres undefined), which Potency is on record?
A: inconclusive: 11.2 µM [activator, partial curve]

Q: Which Potency does the source give for O=C(CN1CCN(S(=O)(=O)c2ccc(Cl)s2)CC1)NCc1ccc(Cl)cc1 here?
A: inconclusive: 2.82 µM [activator, full curve, poor fit]

Q: With Brc1ccc2c(c1)C(c1cccnc1)=NNC(c1cccs1)=N2 as the molecule, how does the Potency read?
A: inconclusive: 2.51 µM [activator, partial curve, poor fit]

Q: For Cc1ccc(N2C(=O)CC(NNC(=O)Cc3ccc(F)cc3)C2=O)cc1Cl (centres undefined), which Potency is on record?
A: inconclusive: 1 µM [activator, full curve, poor fit]

Q: With Cc1noc(C)c1C1(O)CCCCCCCCCCC1 as the molecule, how does the Potency read?
A: inconclusive: 14.1 µM [activator, single point]

Q: With O=C(/C=C1\OCc2ccccc21)OCc1ccccc1 as the molecule, how does the Potency read?
A: inconclusive: 7.94 µM [activator, partial curve, poor fit]

Q: Which Potency does the source give for Cc1ccc(NC(=S)NCCc2ccccc2)nc1 here?
A: inconclusive: 7.08 µM [activator, full curve, poor fit]

Q: With Cc1ccc(C2CCN(C(=S)NC(C)(C)C)C2)cc1 (centres undefined) as the molecule, how does the Potency read?
A: inconclusive: 12.6 µM [activator, partial curve, poor fit]

Q: Which Potency does the source give for Cc1cccc(/C=N/n2c(-c3ccncc3)n[nH]c2=S)c1 here?
A: inconclusive: 35.5 µM [activator, single point]

Q: For Cc1ccccc1N1C(S)=C(C#N)C(=O)NC1c1ccco1 (centres undefined), which Potency is on record?
A: inconclusive: 7.94 µM [activator, partial curve, poor fit]

Q: Which Potency does the source give for CCOc1ccc(NC(=O)C2=C(C)C(=O)OC23CCC(C)CC3)cc1 (centres undefined) here?
A: inconclusive: 10 µM [activator, single point] and inconclusive: 8.91 µM [activator, partial curve]

Q: Which Potency does the source give for CCOc1ccc(S(=O)(=O)N2CCN(C(=S)NCc3ccccc3)CC2)cc1 here?
A: inconclusive: 15.8 µM [activator, single point]

Q: Which Potency does the source give for Cn1ccc2c(-c3ccc(C(F)(F)F)cc3)cc3c(c21)C1CCC3O1 (centres undefined) here?
A: inconclusive: 17.8 µM [activator, single point]

Q: For COc1cccc(NC(=O)/C(C#N)=C/c2c(C)n(Cc3ccccc3)c3ccccc23)c1, which Potency is on record?
A: inactive

Q: Which Potency does the source give for O=C(c1cccc(Br)c1)N1CCN(c2cnn(-c3ccccc3)c(=O)c2Cl)CC1 here?
A: inactive

Q: With Cc1c(C)c2ccc(OCC(=O)N3CCOCC3)c(C)c2oc1=O as the molecule, how does the Potency read?
A: inactive

Q: For COc1ccc(OC)c(C(C)NC(=S)NC2CCCCC2)c1 (centres undefined), which Potency is on record?
A: inconclusive: 8.91 µM [activator, partial curve, poor fit]

Q: For O=C(Nc1cccc(Cl)c1Cl)Nn1cnnc1, which Potency is on record?
A: inconclusive: 6.31 µM [activator, partial curve, poor fit]

Q: For Cc1cc(NC(=O)C2CCN(S(=O)(=O)c3cccs3)CC2)no1, which Potency is on record?
A: inconclusive: 35.5 µM [activator, single point]

Q: For Cn1c(OCC2CCCO2)nc2cc(-c3ccccc3)sc2c1=O (centres undefined), which Potency is on record?
A: inactive

Q: With COc1ccc(-c2cc(C(F)(F)F)n3ncc(-c4ccccc4)c3n2)cc1 as the molecule, how does the Potency read?
A: inactive

Q: Which Potency does the source give for CCC1CCc2c(sc3ncnc(N4CCOCC4)c23)C1 (centres undefined) here?
A: inconclusive: 15.8 µM [activator, partial curve, poor fit]

Q: With O=C1C=C(c2ccc3c(c2)OCCO3)C[C@@H](c2ccc(F)cc2)C1 as the molecule, how does the Potency read?
A: inconclusive: 12.6 µM [activator, partial curve, poor fit]

Q: Which Potency does the source give for O=C1CC(N2CCN(c3ccccc3Cl)CC2)C(=O)N1c1cccc(F)c1 (centres undefined) here?
A: inactive

Q: Which Potency does the source give for Cc1ccc(Nc2nc(N)nc(CSc3nc(C)cc(C)n3)n2)cc1 here?
A: inconclusive: 7.08 µM [activator, partial curve, poor fit]

Q: Which Potency does the source give for Cc1cccc(Nc2cc(C)nc(-n3nc(C)cc3C)n2)c1 here?
A: inconclusive: 11.2 µM [activator, partial curve, poor fit]

Q: Which Potency does the source give for O=C(CSCc1ccccc1)Nc1cc([N+](=O)[O-])ccc1F here?
A: inactive
